The results in this text go back to patent US20050261129A1, “Method of protecting plants from bacterial and fungal diseases” (priority 2003, published 2005).

Test [1] relates to bacterial spot (Xanthomonas campestris pv. vesicatoria) and bacterial speck (Pseudomonas syringae pv. tomato). Kind of test: Tomato SAR trial, field foliar bacterial disease ratings (Example 9). As to conditions: 0, no control, foliage severely damaged; 10, complete control; approximately 3.5 months after seeding; with BONZI 5 ppm. The protocol:
(§1) In this example, the efficacy of several experimental systemic acquired resistance (SAR) compositions in controlling bacterial spot (Xanthomonas campestris pv. vesicatoria) and bacterial speck (Pseudomonas syringae pv. tomato) in tomato plants was determined. The SAR compositions tested are noted in Table 11.
(§2) Tomatoes were seeded in a green house and the SAR compositions applied three separate times, first as a drench nine days after seeding, the second at the 2-leaf stage 15 days after seeding, and finally as a foliar application in the filed approximately two months from seeding. Each treatment was followed up by a 5 ppm application of a plant growth regulator comprising paclobutrazol available under the name BONZI from Syngenta, Greensboro, N.C. The tomatoes were transplanted in single twin-row plots, seven meters in length with rows spaced 1.65 m apart. This procedure was replicated four times in a randomized complete block design. The seedlings were transplanted approximately 1.5 months after seeding using a commercial transplanter. The foliar applications were applied using a specialized small plot research CO2 sprayer with a three nozzled hand-held boom applying 200 L/ha of spray mixture. Foliar bacterial disease assessments were made prior to transplanting and in the field approximately 3.5 months after seeding. Phytotoxicity ratings were also taken in green house prior to transplanting.

Test [2] shares this test system. The experiment in a line: Tomato SAR trial, greenhouse bacterial cluster counts (Example 9). The note with it: number of bacterial lesions on a total of 100 tomato seedlings; each treatment followed by BONZI 5 ppm. The protocol:
as §1, §2

In the case of `CC1(C)CC[C@]2(C(=O)O)CC[C@]3(C)C(=CC[C@@H]4[C@@]5(C)CC[C@H](O)C(C)(C)[C@@H]5CC[C@]43C)[C@@H]2C1` [Sapogenin 6, Oleanolic acid], the “Field Evaluations: Foliar Disease Ratings (0-10)” value in test [1] was determined as 8.0. In addition, the “Greenhouse Evaluations: Bacterial Cluster counts” value in test [2] is 31.3.
Taken in the same sequence, the figures for `COC(=O)[C@@]1(C)CC[C@]2(C(=O)O)CC[C@]3(C)C(=CCC4[C@@]5(C)CCC(O)[C@@](C)(CO)C5CC[C@]43C)C2C1` (stereo partly drawn) [Sapogenin 1, Phytolaccagenic acid] were 6.8 and 12.3.
For `CC1(C)CC[C@]2(C(=O)O)CC[C@]3(C)C(=CC[C@@H]4[C@@]5(C)CC[C@H](O)C(C)(C)[C@@H]5CC[C@]43C)[C@@H]2C1` [Sapogenin 3, Oleanolic acid], the “Field Evaluations: Foliar Disease Ratings (0-10)” value in test [1] is on record as 6.5. In addition, the “Greenhouse Evaluations: Bacterial Cluster counts” value in test [2] came out at 2.7.
The matching figures for `CC1(C)CC[C@]2(C(=O)O)CC[C@]3(C)C(=CC[C@@H]4[C@@]5(C)CC[C@H](O)[C@@](C)(CO)[C@@H]5CC[C@]43C)[C@@H]2C1` [Sapogenin 5, Hederagenin]: 8.0 and 23.3.
Taken in the same sequence, the figures for `CC1(C)CC[C@]2(C(=O)O)CC[C@]3(C)C(=CC[C@@H]4[C@@]5(C)CC[C@H](O)[C@@](C)(CO)[C@@H]5CC[C@]43C)[C@@H]2C1` [Sapogenin 2, Hederagenin] were 6.8 and 19.0.
Taken in the same sequence, the figures for `COC(=O)[C@@]1(C)CC[C@]2(C(=O)O)CC[C@]3(C)C(=CCC4[C@@]5(C)CCC(O)[C@@](C)(CO)C5CC[C@]43C)C2C1` (stereo partly drawn) [Sapogenin 4, Phytolaccagenic acid] were 7.8 and 19.7.
